Experimental data from patent US4336400A, “3-(Hydroxy or hydroxymethyl)-4-hydroxy-alpha(aminomethyl)benzyl alcohols and methods of use” (Sterling Drug Inc., priority 1978, dated 1982).
“And” between values parts separate entries of the source, which are not always exact repeats. Identical values can stand only once. For some of these results: The name of at least one read-out is uncertain. For some of these results: At least one compound was matched to its structure with a doubt left.

Legend:
[1] = tested on: carbachol or histamine bronchoconstriction; assay: Test Method I: bronchodilator activity, intravenous, anesthetized dog; type: in vivo; conditions: i.v., dose (mcg/kg) printed in the line
[2] = tested on: carbachol or histamine bronchoconstriction; assay: Test Method I: bronchodilator activity, intratracheal (aerosol application), anesthetized dog; type: in vivo
[3] = tested on: carbachol or histamine bronchoconstriction; assay: Test Method I: bronchodilator activity, intraduodenal, anesthetized dog; type: in vivo; conditions: dose (salt) mcg/kg
[4] = tested on: guinea pig bronchioles constricted by carbachol; assay: Bronchodilator Test Method II: in vitro, perfused guinea pig lung, bronchioles constricted by carbachol; conditions: Doryl conc. 1:5 million; for Bronchodilator Action, Duration (min) Mean: dose mcg(base) given
Description: Bronchodilator activity was tested in anesthetized dogs (Test Method I) and in vitro on the perfused guinea pig lung (Test Method II), using the following pharmacological test procedures:
In this method bronchodilator activity in vitro was determined by testing the effect of graded doses of the test compounds on guinea pig bronchioles constricted by carbachol, using the technique reported by Sollman and von Oettingen, Proc. Soc. Exp. Biol. Med., 25, 692 (1928) as modified by Tainter, Pedden, and James, J. Pharm. Exp. Ther., 51, 371 (1934) and by Luduena, von Euler, Tuller, and Lands, Arch. Intern. Pharmacol., III, 392 (1957).

[5] = Solubility, pH of solution and precipitation; type: physicochemical; conditions: 1 percent solution in dimethyl sulfoxide
[6] = 60 minutes after medication, * mean of 3 dogs
[7] = 120 minutes after medication, * mean of 3 dogs
[8] = 240 minutes after medication, * mean of 3 dogs
[9] = (H), 150 minutes, No. of actuations (dose in γ/act.) printed in the line

| Compound | Intravenous Activity, Bronchodilatation in Percent ([1]; 5 minutes after medication) | Intravenous Activity, Bronchodilatation in Percent ([1]; 30 minutes after medication) | Intravenous Activity, Bronchodilatation in Percent ([1]; 120 minutes after medication) | Intravenous Activity, Bronchodilatation in Percent ([1]; 180 minutes after medication) | Intravenous Activity, Bronchodilatation in Percent ([1]; 240 minutes after medication) | Intravenous Activity, Bronchodilatation in Percent ([1]; 270 minutes after medication) | Intraduodenal Activity, Bronchodilation in Percent [3, 6] | Intraduodenal Activity, Bronchodilation in Percent [3, 7] | Intraduodenal Activity, Bronchodilation in Percent ([3]; 180 minutes after medication) | Intraduodenal Activity, Bronchodilation in Percent [3, 8] | ED50 [4] | Bronchodilator Action, Duration (min) Mean [4] | Intratracheal Activity (Aerosol Application), bronchodilation [2, 9] | other results |
| --- | --- | --- | --- | --- | --- | --- | --- | --- | --- | --- | --- | --- | --- | --- |
| Cc1ccc(C(=O)Oc2ccc(C(O)CNC(C)(C)C)cc2OC(=O)c2ccc(C)cc2)cc1 (stereo not drawn) [Example 30, 3,4-bis(p-toluyloxy)-alpha-(tert-butylaminomethyl)-benzyl alcohol methanesulfonate] | 54% and 65% and 83% | 63% and 76% and 88% | 52% and 55% and 72% | 62% and 64% | 37% and 50% | 42% | 42% and 36% and 64% | 42% and 45% and 56% | 42% and 40% and 50% | 25% and 47% and 45% | 3.2 mcg(base) | 60 ± 9.6 min | – | Intravenous Activity, Bronchodilatation in Percent ([1]; 60 minutes after medication): 61% and 69% and 75%; Intratracheal Activity (Aerosol Application), bronchodilation ([2]; 1-2 min., No. of actuations (dose in γ/act.) printed in the line): 41 and 54; Intratracheal Activity (Aerosol Application), bronchodilation ([2]; 3 min., No. of actuations (dose in γ/act.) printed in the line): 35; Intratracheal Activity (Aerosol Application), bronchodilation ([2]; 30 minutes, No. of actuations (dose in γ/act.) printed in the line): 34 and 65; Intratracheal Activity (Aerosol Application), bronchodilation ([2]; 60 minutes, No. of actuations (dose in γ/act.) printed in the line): 36 and 45 and 63; Intratracheal Activity (Aerosol Application), bronchodilation ([2]; 120 minutes, No. of actuations (dose in γ/act.) printed in the line): 31 and 40 and 55; Intratracheal Activity (Aerosol Application), bronchodilation ([2]; after 180 minutes (footnotes a, b; values in order of the dose levels)): 29 and 36 and 32; Intraduodenal Activity, Bronchodilation in Percent ([3]; 300 minutes after medication): 31%; precipitation on dilution of a 1 percent dimethyl sulfoxide solution with three volumes of water [5]: no precipitate formed |
| Cc1cccc(C(=O)Oc2ccc(C(O)CNC(C)(C)C)cc2OC(=O)c2cccc(C)c2)c1 (stereo not drawn) [Example 112, 3,4-bis(m-toluyloxy)-alpha-(tert-butylaminomethyl)-benzyl alcohol methanesulfonate] | – | 43% and 60% and 74% | 37% and 54% | – | 38% | 25% | 53% | 0% | – | – | 4.4 mcg(base) | 104.1 ± 34.9 min | 33 | Intratracheal Activity (Aerosol Application), bronchodilation ([2]; (C), 60 minutes, No. of actuations (dose in γ/act.) printed in the line): 38 and 30 and 37 and 48 and 60; Intratracheal Activity (Aerosol Application), bronchodilation ([2]; (C), 120 minutes, No. of actuations (dose in γ/act.) printed in the line): 19 and 30 and 20 and 26 and 35; Intraduodenal Activity, Bronchodilation in Percent ([3]; 5 minutes after medication): 50% and 42%; Intraduodenal Activity, Bronchodilation in Percent ([3]; 30 minutes after medication): 67% |
| COc1ccc(C(=O)Oc2ccc(C(O)CNC(C)(C)C)cc2OC(C)=O)cc1 (stereo not drawn) [Example 145, 3-acetoxy-4-(p-anisoyloxy)-alpha-(tert-butylaminomethyl)benzyl alcohol methanesulfonate] | 65% and 87% and 98% | – | 22% and 27% and 42% | 38% | 24% | – | – | 33% and 49% and 63% | 29% and 32% and 48% | 25% and 30% and 32% | 0.25 mcg(base) | > 72 min | 32 and 33 and 54 | Intratracheal Activity (Aerosol Application), bronchodilation ([2]; (H), 5 minutes, No. of actuations (dose in γ/act.) printed in the line): 48 and 73 and 88; Intratracheal Activity (Aerosol Application), bronchodilation ([2]; (H), 30 minutes, No. of actuations (dose in γ/act.) printed in the line): 45 and 58 and 70; Intratracheal Activity (Aerosol Application), bronchodilation ([2]; (H), 60 minutes, No. of actuations (dose in γ/act.) printed in the line): 37 and 45 and 62; Intratracheal Activity (Aerosol Application), bronchodilation ([2]; (H), 120 minutes, No. of actuations (dose in γ/act.) printed in the line): 38 and 49 and 55; Intratracheal Activity (Aerosol Application), bronchodilation ([2]; (H), 240 minutes, No. of actuations (dose in γ/act.) printed in the line): 33 and 35 and 50 |
